For one assay, the system named is HSkMC. The experiment in a line: cytotoxicity call (relative viability < 0.9). The note with it: 10 µM.
The subject of the next assay is HepG2. The experiment in a line: cytotoxicity call (relative viability < 0.9). As to conditions: 10 µM.
A further assay concerns S. aureus RN4220. As to the kind of experiment: growth inhibition call (relative growth <= 0.2). As to conditions: 50 µM.

The other results are listed elsewhere or left out.

As for `COc1ccc(NC(=O)Nc2ccc3c(c2)C(=O)N([C@@H](C)CO)C[C@H](C)[C@H](CN(C)CC2CCCCC2)OCCCC[C@H](C)O3)cc1`, the cytotoxicity call with HSkMC is “inactive”. In addition, the cytotoxicity call with HepG2 was “active”. In addition, the growth inhibition call in the assay on S. aureus RN4220 is “inactive”.
As for `C[C@@H]1CN([C@@H](C)CO)C(=O)Cc2cc(NC(=O)Cn3cnnn3)ccc2O[C@H]1CN(C)S(=O)(=O)c1cccs1`, the cytotoxicity call in the assay on HSkMC and in the assay on HepG2 was “inactive” each time. The growth inhibition call with S. aureus RN4220 is “inactive”.
On to `C[C@@H]1CCCCO[C@@H](CN(C)Cc2ccc(C(=O)O)cc2)[C@@H](C)CN([C@@H](C)CO)C(=O)c2cc(NC(=O)C3CCCCC3)ccc2O1`, for which the cytotoxicity call with HSkMC and in the assay with HepG2 was “inactive” throughout. The growth inhibition call with S. aureus RN4220 is “inactive”.
For the compound `CC(C)NC(=O)N(C)C[C@@H]1Oc2ccc(NS(=O)(=O)c3ccccc3)cc2C(=O)N([C@@H](C)CO)C[C@@H]1C`, the cytotoxicity call with HSkMC and in the assay on HepG2 was “inactive” throughout. The growth inhibition call in the assay on S. aureus RN4220 is “inactive”.
Turning to `C[C@@H]1CN([C@H](C)CO)C(=O)Cc2cc(NC(=O)NC3CCCCC3)ccc2O[C@H]1CN(C)Cc1ccc(C(=O)Nc2ccccc2N)cc1`, the cytotoxicity call in the assay with HSkMC and in the assay with HepG2 was “inactive” each time. Also, the growth inhibition call in the assay with S. aureus RN4220 was “inactive”.
Consider `C[C@@H]1CN([C@@H](C)CO)C(=O)c2cc(NC(=O)Nc3ccc(C(F)(F)F)cc3)ccc2O[C@@H]1CN(C)Cc1ccc(C(F)(F)F)cc1`, for which the cytotoxicity call with HSkMC and in the assay on HepG2 was “active” throughout. In addition, in the assay with S. aureus RN4220, the growth inhibition call is “inactive”.
Take `O=C(NCc1ccco1)c1nc2ncccn2n1`: the cytotoxicity call in the assay with HSkMC and in the assay with HepG2 was “inactive” throughout. Further, the growth inhibition call in the assay on S. aureus RN4220 was “inactive”.
Take `Cc1ccc(S(=O)(=O)N(C)C[C@@H]2Oc3ccc(NS(=O)(=O)c4ccccc4)cc3CC(=O)N([C@@H](C)CO)C[C@H]2C)cc1`: the cytotoxicity call in the assay with HSkMC and with HepG2 was “inactive” throughout. The growth inhibition call in the assay with S. aureus RN4220 was “inactive”.
For the compound `C[C@@H]1CN([C@H](C)CO)C(=O)c2ccccc2-c2ccccc2CO[C@H]1CN(C)C(=O)Nc1ccc(F)cc1`, the cytotoxicity call in the assay with HSkMC and with HepG2 was “inactive” in each case. Moreover, the growth inhibition call in the assay with S. aureus RN4220 was “inactive”.
`Cc1nc(CN)c(C)o1`: the cytotoxicity call in the assay with HSkMC and in the assay on HepG2 was “inactive” each time. Moreover, in the assay on S. aureus RN4220, the growth inhibition call was “inactive”.
Regarding `Cc1ccccc1S(=O)(=O)N1C[C@@H](O)COC[C@H]2O[C@@H](CC(=O)NCc3ccccc3Cl)CC[C@@H]21`, the cytotoxicity call in the assay on HSkMC (human skeletal muscle cells) and with HepG2 was “inactive” each time. For the same compound, the growth inhibition call with S. aureus RN4220 was “inactive”.

The values are drawn from the antibiotic and cytotoxicity screens of Wong et al. (2023).
